Hit rate of the full screen: of about 39,000 compounds, about 220 (0.56%) showed activity. Some of the results follow.
Tested on: Escherichia coli K-12 BW25113
Test: relative growth (OD600 normalised to plate interquartile mean) (fraction); higher = less growth inhibition, active = 0.2 or less
Conditions: 50 µM; LB; incubation time: overnight (16-24 h)
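Also: static incubation at 37 °C against the wild-type strain, values averaged over two biological replicates.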

SMILES	relative growth
CCC[C@@H](N[C@H]1CCS(=O)(=O)C1)C(=O)O	inactive: 1
CC(C)N(C)Cc1nnc2n1CCN(CCO)C2	inactive: 0.886
CC(C)(C)[S@](=O)N1Cc2cc(C(=O)NC3CCC3)nc(-c3cccc(-c4ccccc4F)c3)c2[C@@H]1CCO	inactive: 1.06
c1n[nH]cc1-c1cn[nH]c1	inactive: 0.997
C[C@H](CO)N1C[C@H](C)[C@H](CN(C)C(=O)Nc2cccc3ccccc23)OCCCC[C@H](C)Oc2ccc(NS(=O)(=O)c3cccs3)cc2C1=O	inactive: 0.987
CCOC(=O)N1CCN(C[C@@H](O)Cn2c(=O)c3c(ncn3C)n(C)c2=O)CC1	inactive: 1.01
C[C@H](CO)N1C[C@H](C)[C@H](CN(C)Cc2ccc(C(=O)Nc3ccccc3N)cc2)Oc2ccc(NC(=O)Nc3ccccc3)cc2C1=O	inactive: 1.01
Cc1ccc(S(=O)(=O)N(C)C[C@@H]2Oc3c(NS(C)(=O)=O)cccc3C(=O)N([C@@H](C)CO)C[C@@H]2C)cc1	inactive: 1
COc1ccc2c3c(n(c2c1)C)[C@@H](CO)N(C[C@]13CCN(CC1)C(=O)CN1CCOCC1)C(=O)Nc1ccc(cc1)F	inactive: 1.01
CC(C)NC(=O)N(C)C[C@H]1OCCCC[C@@H](C)Oc2ccc(NC(=O)Nc3ccc(C(F)(F)F)cc3)cc2C(=O)N([C@@H](C)CO)C[C@H]1C	inactive: 0.995
COc1ccc(S(=O)(=O)N(C)C[C@H]2Oc3c(NC(=O)c4ccncc4)cccc3C(=O)N([C@H](C)CO)C[C@@H]2C)cc1	inactive: 1.01
N[C@@H](CSSC[C@H](N)C(=O)O)C(=O)O	inactive: 1.02
COc1ccc(NC(=O)Nc2cccc3c2O[C@@H](CN(C)CC2CCCCC2)[C@@H](C)CN([C@H](C)CO)C3=O)cc1	inactive: 0.832
Cl.NCc1ccc(S(N)(=O)=O)cc1	inactive: 0.983
CCCNC(=O)Nc1ccc2c(c1)C(=O)N(C)C[C@@H](OC)[C@H](C)CN(C(=O)C1CCOCC1)[C@H](C)CO2	inactive: 0.952
C[C@@H]1CN([C@@H](C)CO)C(=O)c2cc(NC(=O)c3ccccc3)ccc2O[C@@H](C)CCCCO[C@H]1CN(C)Cc1ccncc1	inactive: 0.995
CO[C@H]1CN(C)C(=O)c2cc(NS(=O)(=O)c3cn(C)cn3)ccc2OC[C@H](C)N(CCC(F)(F)F)C[C@@H]1C	inactive: 1
COc1ccc(NC(=O)Nc2ccc3c(c2)C(=O)N([C@H](C)CO)C[C@H](C)[C@@H](CN(C)C(=O)C2CCCCC2)OCCCC[C@H](C)O3)cc1	inactive: 0.988
Cc1noc(C)c1S(=O)(=O)Nc1cccc2c1O[C@H](CN(C)S(=O)(=O)c1cccs1)[C@H](C)CN([C@H](C)CO)C2=O	inactive: 0.983
O=C(Nc1ccc(C(F)(F)F)cc1)Nc1cccc(Cl)c1	inactive: 0.747
CCO[C@@H]1OC(C(=O)N2CCN(Cc3ccc4c(c3)OCO4)CC2)=C[C@H](c2csc3ccccc23)[C@H]1CCCOC(=O)NCCCCCC(=O)NO	inactive: 1.02
COc1cccc(C#Cc2cnc3c(c2)C(=O)N([C@@H](C)CO)C[C@H](C)[C@H](CN(C)C(=O)C2CCC2)O3)c1	inactive: 1.03

SMILES	relative growth
NC1(C(=O)O)CC1	inactive: 0.988
CN1CCN(C(=O)C[C@@H]2C=C[C@@H](NC(=O)Nc3ccccc3F)[C@@H](CO)O2)CC1	inactive: 0.996
CC1COc2c(N3CCN(C)CC3)c(F)cc3c(=O)c(C(=O)O)cn1c23 (centres undefined)	active: 0.0447
C[C@H](CO)N1C[C@H](C)[C@@H](CN(C)Cc2ccncc2)Oc2ccc(NC(=O)CCN3CCOCC3)cc2CC1=O	inactive: 0.982
C[C@@H]1CN([C@H](C)CO)S(=O)(=O)c2ccc(C#CC3CC3)cc2O[C@H]1CN(C)Cc1ccc(F)cc1	inactive: 1.03
COC(=O)CCc1ccc(OC)cc1O	inactive: 0.959
O=C(C[C@@H]1C[C@H]2c3cc(NS(=O)(=O)c4ccc(F)cc4)ccc3O[C@H]2[C@H](CO)O1)NCc1ccccc1	inactive: 1
COC(=O)c1ccc(=O)oc1	inactive: 0.993
C[C@H]1CCCCO[C@@H](CN(C)C(=O)C2CCCCC2)[C@@H](C)CN([C@@H](C)CO)C(=O)c2cc(NC(=O)Nc3ccccc3)ccc2O1	inactive: 1.01
Cc1noc(C)c1S(=O)(=O)Nc1ccc2c(c1)C(=O)N([C@@H](C)CO)C[C@@H](C)[C@@H](CN(C)Cc1ccccc1)OCCCC[C@@H](C)O2	inactive: 1.02
COc1ccc(NC(=O)Nc2ccc3c(c2)C(=O)N([C@H](C)CO)C[C@@H](C)[C@H](CN(C)C(=O)C2CCCCC2)OCCCC[C@@H](C)O3)cc1	inactive: 0.943
C[C@@H]1CCCCO[C@@H](CN(C)C(=O)CCC(F)(F)F)[C@@H](C)CN([C@H](C)CO)C(=O)c2cc(NC(=O)c3ccccc3)ccc2O1	inactive: 0.982
C[C@@H]1CN([C@H](C)CO)S(=O)(=O)c2ccc(C#Cc3ccccc3)cc2O[C@H]1CN(C)S(=O)(=O)c1cn(C)cn1	inactive: 1.03
C[C@@]1(O)CCOC(=O)C1	inactive: 0.997
C[C@H]1CN([C@@H](C)CO)C(=O)c2c(c3ccccc3n2C)-c2ccccc2CO[C@@H]1CN(C)C(=O)Nc1ccccc1C(F)(F)F	inactive: 0.983
Cc1ccc(S(=O)(=O)Nc2ccc3c(c2)C(=O)N([C@H](C)CO)C[C@@H](C)[C@@H](CN(C)Cc2ccncc2)OCCCC[C@H](C)O3)cc1	inactive: 1.01
CO[C@H](C(=O)N(C)C[C@@H]1OCc2ccccc2-c2c(n(C)c3ccccc23)C(=O)N([C@@H](C)CO)C[C@H]1C)c1ccccc1	inactive: 1.02
C[C@@H]1CN([C@H](C)CO)C(=O)c2cc(NC(=O)Cc3cn(C)c4ccccc34)ccc2O[C@@H]1CN(C)Cc1ccc(-c2ccccc2)cc1	inactive: 1
C[C@@H]1CN([C@H](C)CO)C(=O)c2cc(NC(=O)Cc3ccccc3)ccc2O[C@H]1CN(C)C(=O)Nc1ccc(C(F)(F)F)cc1	inactive: 1.03
C[C@H](CO)N1C[C@H](C)[C@@H](CN(C)S(=O)(=O)c2cccs2)Oc2c(NS(=O)(=O)c3cccs3)cccc2C1=O	inactive: 0.925
O=C(N[C@H]1CC[C@@H](CCn2cc(C3(O)CCCC3)nn2)O[C@H]1CO)C1CCOCC1	inactive: 0.951
C[C@@H]1CN([C@H](C)CO)C(=O)c2cc(NC(=O)CCC(F)(F)F)ccc2O[C@@H](C)CCCCO[C@H]1CN(C)C(=O)Nc1ccc2c(c1)OCO2	inactive: 1

SMILES	relative growth
COc1ccc(NC(=O)Nc2ccc3c(c2)C(=O)N([C@H](C)CO)C[C@@H](C)[C@@H](CN(C)Cc2ccc(C(=O)O)cc2)OCCCC[C@@H](C)O3)cc1	inactive: 0.987
NC(=O)c1cc2ccccc2nc1C(N)=O	inactive: 0.979
C[C@H]1O[C@@H](n2cc(F)c(=O)[nH]c2=O)[C@H](O)[C@@H]1O	inactive: 0.667
C[C@H]1CCCCO[C@H](CN(C)C(=O)Nc2cccc3ccccc23)[C@@H](C)CN([C@@H](C)CO)C(=O)c2cc(NS(=O)(=O)c3ccc(F)cc3)ccc2O1	inactive: 1.03
Cc1noc(C)c1S(=O)(=O)Nc1ccc2c(c1)C(=O)N([C@@H](C)CO)C[C@@H](C)[C@@H](CN(C)S(=O)(=O)c1ccccc1)O2	inactive: 1.01
Nc1ncnc2c1ncn2[C@@H]1O[C@H](COP(=O)(O)O)[C@@H](O)[C@H]1O	inactive: 1.13
C[C@@H]1CCCCO[C@@H](CN(C)Cc2ccc(Cl)c(Cl)c2)[C@@H](C)CN([C@H](C)CO)C(=O)c2cc(NC(=O)CCCN(C)C)ccc2O1	inactive: 0.924
c1ccc2cc3nc4c(ccc5ccccc54)nc3cc2c1	inactive: 1.04
COc1cc(C)ccc1S(=O)(=O)N1[C@@H]2CC[C@@H](C2)[C@H]1c1nc2cccc(OCc3ccccc3)c2[nH]1	inactive: 1.02
COc1ccc(S(=O)(=O)N(C)C[C@@H]2Oc3ccc(NC(=O)CCC(F)(F)F)cc3CC(=O)N([C@@H](C)CO)C[C@@H]2C)cc1	inactive: 1.01
C[C@H]1CN([C@@H](C)CO)C(=O)c2cccc(NC(=O)CCCCCC(=O)Nc3ccccc3N)c2O[C@H]1CN(C)Cc1ccc(Cl)c(Cl)c1	inactive: 0.99
Cc1noc(C)c1NC(=O)N(C)C[C@H]1Oc2ccc(NC(=O)Cn3cnnn3)cc2CC(=O)N([C@H](C)CO)C[C@@H]1C	inactive: 1
CO[C@@H](CN(C)S(=O)(=O)c1cccc(Cl)c1)[C@@H](C)CN([C@H](C)CO)S(=O)(=O)c1cccc(Cl)c1	inactive: 1.02
COc1ccc(S(=O)(=O)N(C)C[C@@H]2Oc3ccc(NS(=O)(=O)c4ccc(C)cc4)cc3CC(=O)N([C@H](C)CO)C[C@@H]2C)cc1	inactive: 1.02
C[C@H]1CN([C@@H](C)CO)C(=O)Cc2cc(NC(=O)CCN3CCOCC3)ccc2O[C@@H]1CN(C)S(C)(=O)=O	inactive: 1.04
CO[C@@H](CN(C)C(=O)c1ccccc1F)[C@H](C)CN([C@@H](C)CO)S(=O)(=O)c1ccc(Cl)cc1	inactive: 0.982
O=C(O)/C=C\C(=O)NCc1cccnc1	inactive: 0.99
O=C(C[C@@H]1C[C@@H]2c3cc(NC(=O)Nc4ccc(C(F)(F)F)cc4)ccc3O[C@@H]2[C@@H](CO)O1)NC1CCCCC1	inactive: 1.02
COCCN1C[C@@H]2CN(C(=O)[C@H]3CCCO3)C[C@H]2C1=O	inactive: 0.971
C[C@H]1CN([C@@H](C)CO)C(=O)Cc2cc(NC(=O)C3CC3)ccc2O[C@H]1CN(C)Cc1ccc(C(=O)O)cc1	inactive: 0.99

Source: the supplement of paper PMC9446081
